In PubChem BioAssay AID1671194 (National Center for Advancing Translational Sciences (NCATS), 2021):
In all, about 140,000 compounds went through this assay and about 240 (0.17%) were called active. This list was built around the results that the source calls inconclusive (neither active nor inactive); the mix of calls is not that of the screen. Calls follow the shape of the dose curve; as a rule, active = well fitted inhibition curve with a large enough effect; inconclusive = small, poorly fitted or top-dose-only effect; inactive = no such curve, though single readings can be large or run the other way. Potencies beside an inconclusive call are fits to weak or partial responses and may not hold up.

Assay: Primary qHTS assay for inhibitors of alpha-synuclein gene (SNCA) expression; also: nearly all actives have a fitted effect of over 45% in size
Conditions: HEK-293 SNCA-luciferase knock-in, luminescence, 24 h; series mostly up to 57.2 µM
Potency is read from the fitted curve at half-maximal effect; tags tell the direction and shape of the fitted curve.

Potency, inconclusive:
CCc1nn2c(=O)cc(COC(=O)c3ccccc3NC(=O)c3cccs3)nc2s1 7.08 µM [inhibitor, single point]
CCn1nccc1C(=O)N1CCC2(CC1)NCCc1c2[nH]c2ccc(OC)cc12 28.2 µM [inhibitor, single point]
CCOC(=O)c1ccc(NC(=O)Cn2cnc3sc(C(=O)OCC)c(C)c3c2=O)cc1 12.6 µM [inhibitor, partial curve, poor fit]
Cc1ccncc1C(=O)N1CCC2(CC1)NCCc1c2[nH]c2ccccc12 39.8 µM [inhibitor, single point]
O=S(=O)(c1ccccc1)c1nnn2c1nc(NCc1ccc(F)cc1)c1ccccc12 1 µM [inhibitor, full curve]
COc1ccc(CNC(=O)c2cn(-c3cccc(OC)c3)c(=O)c3ccccc23)cc1 6.31 µM [inhibitor, single point]
Cc1ccc(CNC(=O)c2cc3c(s2)CCN(C(=O)c2ccccc2)C3)cc1 20 µM [inhibitor, partial curve, poor fit]
Cc1ccc(C(=O)N2CCCN(S(C)(=O)=O)c3ccccc32)cc1C 3.16 µM [inhibitor, single point]
CC(Sc1nc2c([nH]c3ccccc32)c(=O)n1-c1ccccc1)c1ccccc1 (centres undefined) 25.1 µM [inhibitor, partial curve, poor fit]
CN(C)CCN1C(=O)c2cccc3cc(N)cc(c23)C1=O 42.9 µM [inhibitor, single point]
CCC(CC)c1cc([C@H]2CN3CC[C@H]2C[C@@H]3CNC(=O)c2cc(OC)c(OC)c(OC)c2)nc(-c2ccncc2)n1 8.91 µM [inhibitor, partial curve, poor fit]
Cc1cccc(-c2nc(SCC(=O)N(C)c3ccccc3)c3c(=O)n(C)c(=O)n(C)c3n2)c1 39.8 µM [inhibitor, single point]
CC1CCN(C(=O)C(C)Sc2nc(-c3ccccc3)cc(C(F)(F)F)n2)CC1 (centres undefined) 39.8 µM [inhibitor, single point]
N#Cc1ccc(O[C@@H]2CCOC[C@H]2NC(=O)CCN2CCCC2=O)cc1 4.47 µM [inhibitor, single point]
CC(=O)N1Cc2ccccc2OC2(CCN(C(=O)c3ccnc(N)c3)CC2)C1 39.8 µM [inhibitor, single point]
COc1ccccc1Nc1cnc2ccc(-c3ccc(F)cc3)nn12 28.2 µM [inhibitor, partial curve, poor fit]
C#CCNC(=O)c1cc(C(C)(C)C)nc2c1cnn2C 10 µM [inhibitor, partial curve, poor fit]
Cc1nc(-c2ccc(F)cc2)sc1CCNC(=O)c1ccc(C(C)(C)C)cc1 39.8 µM [inhibitor, single point]
Cc1ccc(C(=O)NCC(c2cccnc2)N2CCc3ccccc3C2)cc1C (centres undefined) 25.1 µM [inhibitor, single point]
Cc1noc(C)c1S(=O)(=O)NCCc1csc2nc(-c3ccc(Cl)cc3)nn12 7.08 µM [inhibitor, single point]
O=C(COc1ccc(F)cc1)Nc1ccc(Cl)c(-c2nc3ccccc3[nH]2)c1 25.1 µM [inhibitor, single point]
CCOC(=O)N1CCN(C(=O)Cn2ncc3c4ccccc4n(Cc4ccc(F)cc4)c3c2=O)CC1 17.8 µM [inhibitor, single point]
O=c1cc(CN2CCOCC2)occ1OCCCCCSc1ccnc2cc(C(F)(F)F)ccc12 12.1 µM [inhibitor, partial curve, poor fit]
COC1=C(OC)C(=O)c2ccccc2C1=O 8.91 µM [inhibitor, single point]
CN1CCC(N2CCOC[C@H]2c2ncc(C(C)(C)C)[nH]2)CC1 14.1 µM [inhibitor, partial curve]
Cn1nccc1C(=O)N1C[C@@H](Oc2ccccc2)C[C@@H]1C(=O)N1CCOCC1 39.8 µM [inhibitor, partial curve, poor fit]
O=C(Nc1ccc(Cl)cc1)c1cc(S(=O)(=O)NC2CCCCCC2)ccc1F 39.8 µM [inhibitor, single point]
CC(C)C[C@@H]1N[C@H](C(=O)NC2CCC2)Cc2c[nH]c3cccc1c23 56.2 µM [inhibitor, single point]
COc1cc(OC)cc(C(=O)N2CCCC(c3noc(COc4ccccc4F)n3)C2)c1 (centres undefined) 25.1 µM [inhibitor, single point]
Cc1ccc(SCc2nc(-c3ccc(C(=O)NCC(C)c4ccccc4)cc3)oc2C)cc1 (centres undefined) 39.8 µM [inhibitor, single point]
O=[S+]([O-])(NC1CCN(c2ccnc3ccnn23)C1)c1ccccc1 (centres undefined) 11.2 µM [inhibitor, partial curve, poor fit]
CC1(C)CC(=O)c2c(C(F)(F)F)nn(-c3ccc(C(N)=O)c(NC4CCC(O)CC4)c3)c2C1 (centres undefined) 0.108 µM [inhibitor, full curve, poor fit]
Fc1ccc(-c2cnc3n2C[C@H](CNCc2ccc4c(c2)OCO4)OC3)cc1 5.62 µM [inhibitor, full curve, poor fit]
COCCCn1c(=N)c(C(=O)NC2CCCCC2)cc2c(=O)n3cc(C)ccc3nc21 39.8 µM [inhibitor, single point]
CCCOc1nccnc1NC1CCN(S(=O)(=O)C2CC2)CC1 10 µM [inhibitor, partial curve, poor fit]
O=C(CCc1conc1-c1cccc(F)c1)NCc1cccc(Cl)c1 8.91 µM [inhibitor, partial curve, poor fit]
COc1ccc(-c2ccnc3nc(C4CC4)nn23)c(F)c1 22.4 µM [inhibitor, partial curve, poor fit]
O=C(c1ccco1)N1CCC(O)(c2ccccc2)[C@H](N2CCCC2)C1 (some centres undefined) 2 µM [inhibitor, partial curve, poor fit]
O=C(Cc1ccccc1Cl)NC1CCN(c2cc(-c3ccccc3)[nH]n2)C1 (centres undefined) 25.1 µM [inhibitor, partial curve, poor fit]
CCN(C(=O)Cn1ncc2c(=O)oc3ccccc3c21)c1ccccc1F 3.55 µM [inhibitor, full curve, poor fit]
CC1(CCCCc2ccccc2)COc2ccc(C(=O)N3CCOCC3)cc2N1 (centres undefined) 1.12 µM [inhibitor, full curve, poor fit]
O=C(c1cc2ccc3cccnc3c2[nH]1)N1CCN(c2cccc(Cl)c2)CC1 39.8 µM [inhibitor, single point]
Cc1ccc(-n2nc3c(=O)n(C(C)C(=O)NCc4ccccc4C)nc(C)c3c2C)cc1 (centres undefined) 5.01 µM [inhibitor, full curve, poor fit]
COc1ccccc1-c1cccc(CN2CCCC(C(=O)NCc3ccc4c(c3)OCO4)C2)c1 (centres undefined) 20 µM [inhibitor, partial curve, poor fit]

Potency, inactive:
CCn1cc(S(=O)(=O)N2CC(N(C3CCOCC3)S(C)(=O)=O)C2)cn1
CC(=O)N1CCN(C(=O)C2CCc3nnc(C4CCN(C(=O)NC(C)(C)C)CC4)n32)CC1 (centres undefined)
O=C(C1CC1)N1CCC2(CC1)CCN(Cc1cccs1)c1ccccc1O2
O=C(CCC[C@@H]1[C@H]2CCCN3CCC[C@@H](CN1C(=O)C1CCC1)[C@@H]23)NCC1CC1
Cc1noc2c(NCCN3CCOCC3)cc(-c3ccsc3)nc12
CCCc1nnc(C[C@@H]2C[C@@H](C(C)C)[C@H](CN3CCN(CCO)CC3)C=C2C)o1
COc1ccc(C(=O)Nc2ccc([C@H]3OCC(=O)N(Cc4ccncc4)[C@@H]3CO)cc2)cc1OC
Cc1ccc(C2(O)CCN(C(=O)c3ccc4nc(C)c(C)nc4c3)CC2)nc1
COc1cc2ccccc2cc1C(=O)Nc1ccc2oc(-c3cccc(C)c3)nc2c1
c1ccc(C2(c3ccccc3)CCCN(CCCn3cnnn3)C2)cc1
CC(=O)Nc1ccc2c(c1)nc1n2[C@@H](CNC(=O)c2ccccc2)COC1
CN1C[C@@H](NC(=O)c2ccccn2)C[C@H]1c1nc(-c2ccc(Cl)cc2)no1
Cc1ccc(-c2cc3c(=O)n(CCNC(=O)c4cc(Cl)ccc4F)ccn3n2)c(C)c1
COc1cccc(CNC(=O)c2ccc3nnc(-c4ccc(Cl)cc4)n3c2)c1
O=C(NCc1ccc(F)cc1)c1cc(-c2cnccc2Cl)c2cccn2n1
COc1ccc(-c2cc(N3CCCC(NC(=O)c4cc(OC)c(OC)c(OC)c4)C3)n[nH]2)cc1 (centres undefined)
O=C(c1ccc2cc[nH]c2c1)N1C[C@@H](CO)[C@H](c2nc(C3CC3)no2)C1
CN1c2cc(C(=O)N3CCN(c4ccccc4F)CC3)ccc2C(=O)N2CCCCC21 (centres undefined)
CCOc1nccnc1NC1CCN(C(=O)c2ccnn2CC)CC1
Cc1ccc2oc(=O)c3cc(C(=O)NCCc4ccc(Cl)cc4)sc3c2c1
